Measurements from PubChem BioAssay AID1346428 (National Center for Advancing Translational Sciences (NCATS), 2018).
“And” between values parts separate entries of the source, which are not always exact repeats. Identical values can stand only once. Hit rate of the full screen: of about 48,000 compounds, about 1,200 (2.5%) were called active. Roughly 2% stayed inconclusive and do not appear here.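 How the source made its calls: active means activation of at least 60% and not above a set upper limit (about 1 call in 100 departs from these limits); inconclusive means activation of 40% to 60%, or above that upper limit; inactive means activation under 40%.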 The list shows a part of the results.

Target: Probable G-protein coupled receptor 32 (Homo sapiens) (UniProt O75388)
Experiment: qHTS for Agonists of Human Resolvin D1 Receptor DRV1; further: 0% is about no effect
Conditions: CHO-K1 GPR32 beta-arrestin PathHunter luminescence, 90 min; at 76.9 µM; hits give high values; zero percent set by DMSO-only wells
In short: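 PathHunter beta-arrestin recruitment in CHO-K1 cells stably expressing ProLink-tagged GPR32. Cells were exposed to compound for 90 min at 37 C, then chemiluminescence was read after 1 h detection at ambient temperature; DMSO served as basal control.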

Chain of UniProt O75388 (O75388 whole entry, looked up): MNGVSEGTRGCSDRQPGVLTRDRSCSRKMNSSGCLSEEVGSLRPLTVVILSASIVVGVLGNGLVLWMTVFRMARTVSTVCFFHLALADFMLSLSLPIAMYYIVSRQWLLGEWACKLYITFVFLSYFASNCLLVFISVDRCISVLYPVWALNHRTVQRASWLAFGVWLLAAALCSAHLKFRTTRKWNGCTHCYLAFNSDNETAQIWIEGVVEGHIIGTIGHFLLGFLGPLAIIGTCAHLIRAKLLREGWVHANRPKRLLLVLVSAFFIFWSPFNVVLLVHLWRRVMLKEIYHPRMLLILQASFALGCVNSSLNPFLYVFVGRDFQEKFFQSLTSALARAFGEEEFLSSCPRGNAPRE

activation, inactive:
CCOc1ccccc1C(=O)N1CC(=O)Nc2ccc(C)cc2C1c1ccccc1 (configuration not stated) -19.7%
Cc1ccc(CN2c3ccccc3-c3nc(SCC(=O)Nc4c(C)cc(C)cc4C)ncc3S2(=O)=O)cc1 -17.5%
CCOc1ccccc1NC(=O)N1CCc2c(sc3c2CCCC3)C1c1ccccc1 (configuration not stated) -1.47%
O=C(OCc1ccccc1Cl)c1ccc(-c2nnn(Cc3ccc(F)cc3)n2)cc1 1.54%
Cc1nn2c(=O)cc(COc3ccc(/C=C(\C#N)C(=O)Nc4ccccc4)cc3Cl)nc2s1 -0.0838%
Brc1ccc2c(c1)NC(c1cccnc1)=NC(c1ccccc1)=N2 -11.3%
CCc1cccc(C)c1Nc1c(-c2cccs2)nc2nc(C)cc(C)n12 -34.3%
CCOc1cc(C(=O)NCc2nc(-c3cccc(C)c3)no2)cc(OCC)c1OCC -14.6%
COC(=O)c1ccccc1NC(=O)c1cc(CN2CCOCC2)on1 -8.73%
CCN(CC)c1ccc(NC(=O)CCS(=O)(=O)c2ccc3c(c2)oc(=O)n3C)c(C)c1 -1.26%
Cc1ccc(CNc2ncnc3onc(C)c23)cc1 19.6%
COc1ccc(-c2cc3nc(C)c(CCC(=O)N4CCN(c5ccccc5F)CC4)c(C)n3n2)c(OC)c1 13.8%
CCC(=O)Nc1ccc(CC)cc1-c1nc2ccccc2n(CC(=O)Nc2ccccc2C)c1=O -0.424%
COc1ccc(-c2onc(C)c2C)cc1S(=O)(=O)Nc1cc(Cl)ccc1C -3.07%
O=C(CSc1nc2ccccc2nc1Cc1ccccc1F)Nc1cccc(C(F)(F)F)c1 22.9%
CC(C)OCCCn1c(=O)c2ccccc2n2c(-c3cc(Cl)ccc3O)nnc12 15.5%
CCCOc1ccc(C2c3c(-c4ccccc4O)n[nH]c3C(=O)N2Cc2cccnc2)cc1 (configuration not stated) -10.4%
COc1cc2c(cc1OC)C(COc1ccc(F)cc1)N(C(=O)Cc1ccccc1)CC2 (configuration not stated) -28.5%
CCOc1ccc(-c2cc(C(=O)NCCCOC)c3c(-c4ccc(CC)cc4)[nH]nc3n2)cc1 -23.4%
COc1cc(C(=O)Nc2ccc(-c3nc4ccccc4o3)c(O)c2)cc(OC)c1OC -0.819%
Cc1cn2c(=O)cc(COC(=O)c3ccc(NC(=O)COc4ccc(C)c(C)c4)cc3)nc2s1 -15.1%
CCOc1ccc(CN(C(=O)c2cc(=O)c3cc(Cl)ccc3o2)C2CCS(=O)(=O)C2)cc1 (configuration not stated) -7.05%
CCCCOC(=O)c1c(C)oc2ccc(NS(=O)(=O)c3ccc(F)cc3C)cc12 16%
CCc1ccc(CNc2ncnc3onc(-c4ccc(Cl)cc4)c23)cc1 -4.81%
COc1ccc(N2CCN(C(CNC(=O)c3cccc(OC)c3)c3cccnc3)CC2)cc1 (configuration not stated) 3.59%
NC(N)=NC(=O)c1nc(Cl)c(N)nc1N -15.8% and 6.15%
COc1ccc(-c2cc(C(F)(F)F)n3nc(C(=O)Nc4sc5c(c4C(=O)OC(C)C)CCCC5)cc3n2)cc1OC -8.72%
CCN(CC)C(=O)C1CCN(c2cc(C)nc3c(-c4ccc(OC)c(OC)c4)c(C)nn23)CC1 3.37%
COc1ccc(NC(=O)Cn2c(=O)n(-c3ccc(C)c(C)c3)c(=O)c3c4c(sc32)CCCCC4)cc1Cl -7.68%
CCc1ccc(NC(=O)CSc2cn(CC(=O)N3CCOCC3)c3ccccc23)cc1 -2.19%
CCCCNC(=O)CSC1=Nc2ccccc2C2=NC(CCC(=O)NCc3ccccc3OC)C(=O)N12 (configuration not stated) 0.969%
Cn1c(C(=O)N2CCCC(C(=O)N3CCN(c4ccccc4)CC3)C2)cc2sccc21 (configuration not stated) -5.54%
COc1ccc(CCNC(=O)c2cc(=O)c3c(C)cc(C)cc3o2)cc1OC 38.8%
Cc1ccc(/C=C/c2nc3ccccc3n2S(=O)(=O)c2cccc(Cl)c2)cc1 40%
O=C(CCn1c(=O)c2cccn2c2cccnc21)NCc1ccc(Cl)cc1 -15.4%
COC(=O)c1ccc(NC(=O)C(=O)NCCc2sc3nc(-c4ccc(OC)cc4)nn3c2C)cc1 -4.6%
COc1ccccc1NC(=O)C1=C(C)Nc2c(C(=O)Nc3cccc(C)c3)cnn2C1c1ccccc1C (configuration not stated) -16.4%
COc1cc2c(cc1OC)n(CC(=O)Nc1ccccc1)c(=O)n1nc(-c3ccccc3)nc21 11.8%
CCOC(=O)c1ccc(NC(=O)Cn2cc(C(=O)c3cccs3)c3ccccc32)cc1 -17.3%
Cc1cccc(OC(=O)c2nc(SCc3ccccc3F)ncc2Cl)c1 -18.5%
Cc1nc2ccn(Cc3cccs3)c(=O)c2cc1C(=O)NCc1ccc(Cl)cc1 -24.5%
Cc1ccc(Nc2nc3c(S(=O)(=O)c4ccccc4)nnn3c3ccc(Cl)cc23)c(C)c1 9.61%
COc1ccc(CNC(=O)c2cc3c(=O)[nH]c4ccccc4c3n2C)c(OC)c1 9.58%
Cc1ccc2c(c1)N(C(=O)N1CCC(C(=O)NCc3cccs3)CC1)CC(C)O2 (configuration not stated) -0.322%
Cc1nn2c(=O)cc(COC(=O)C(c3ccccc3)c3ccccc3)nc2s1 -8.47%
CC(NC(=O)CN1C(=O)COc2ccc(Cl)cc21)c1ccccc1 (configuration not stated) -1.57%
COc1ccc(CCNC(=O)CCCn2c(=O)c3ccccc3n(CC(=O)Nc3ccc(C)cc3Cl)c2=O)cc1OC 39.7%
COc1ccc(Cl)cc1NC(=O)NCc1noc2ccccc12 -12.6%
Cc1ccc(-c2c(C(=O)N(C)Cc3ccccc3)oc(=O)c3ccccc23)cc1 -7.12%
Cc1ccc(NC(=O)C2CCN(C(=O)c3cnn(-c4ccccc4)c3-n3cccc3)CC2)cc1C 0.748%
CC(C)c1ccc(NC(=O)CCNS(=O)(=O)c2ccc3c(c2)oc(=O)n3C)cc1 4.18%
C=C(C)Cn1c(SCC(=O)Nc2cccc(C)c2)nc2sc3c(c2c1=O)CCCC3 -0.104%
O=C(CCS(=O)(=O)c1nc(-c2ccc3c(c2)OCO3)cc(C(F)(F)F)n1)Nc1ccc(F)cc1F -35.1%
COC(=O)c1nnn(-c2ccc(Cl)cc2)c1C(=O)OC -2.94%
Cc1ccc(-n2ncc(C(=O)N3CCN(C(=O)c4ccco4)CC3)c2C2CCN(C(=O)OC(C)(C)C)CC2)cc1 -6.99%
CCS(=O)(=O)c1ncc(Cl)c(C(=O)Nc2c(C(=O)c3ccc(C)cc3)oc3ccccc23)n1 14.9%
O=C(NCC(c1cccnc1)N1CCc2ccccc2C1)C(=O)Nc1ccc(F)cc1F (configuration not stated) -16%
Cc1cccc(-c2nc(C)c(CCNC(=O)c3cccs3)s2)c1 37.8%
O=C(CN1CCCN(Cc2cccc(F)c2)S1(=O)=O)Nc1ccc2c(c1)OCCO2 23.1%
COc1cccc(-c2cn3c(n2)sc2cc(C(=O)NCCC4=CCCCC4)ccc23)c1 -16%
O=C(CSc1oc(-c2ccc(F)cc2)nc1S(=O)(=O)c1ccc(Cl)cc1)c1ccccc1 -22%
Cc1cccc(CCNC(=O)c2nn(C)c3c2CSc2ccccc2-3)c1 8.66%
O=C(c1ccc2c(c1)N(Cc1cccc(Cl)c1)C(=O)c1ccccc1S2(=O)=O)N1CCCCCC1 -26.6%
COc1ccc(-c2nc(CSc3nnc(C)n4c3cc3sccc34)c(C)o2)cc1 1.06%
COc1ccc(-c2ccc(=O)n(CC(=O)Nc3ccccc3C(F)(F)F)n2)cc1 27.1%
CCS(=O)(=O)N1CCc2cc(C(=O)Nc3cccc(NC(C)=O)c3)ccc21 25.2%
Oc1ccccc1-c1nc2ccc(Cl)cn2c1Nc1ccc2c(c1)OCCO2 20.6%
O=C(Nc1c(C(=O)N2CCN(c3ccccc3F)CC2)oc2ccccc12)c1ccc(Br)o1 -34.2%
S=C(S)N1CCCC1 -38%
Cc1ccc(C2c3[nH]c4ccccc4c3CCN2C(=O)CSc2ccccc2)cc1 (configuration not stated) -33.3%
CC(Oc1ccc(Br)cc1)C(=O)N(Cc1nc(-c2ccccc2)no1)C(C)C (configuration not stated) 5.31%
O=C(NCCCN1CCN(c2ccccc2)CC1)c1ccc2nc(CCc3ccccc3)oc2c1 -11.2%
CCc1nn2c(=O)cc(COC(=O)c3ccccc3NC(=O)c3ccc(C(C)(C)C)cc3)nc2s1 -10.2%
Cc1ccccc1OCC(=O)Nc1nnc(S(=O)(=O)N2CCCCCC2)s1 -0.54%
Cn1c(=O)oc2cc(S(=O)(=O)N3CCCC(C(=O)N4CCN(c5ccc(F)cc5)CC4)C3)ccc21 (configuration not stated) 11%
CSc1cccc(NC(=O)C2CCCN(S(=O)(=O)c3ccc4c(c3)CCCN4C(C)=O)C2)c1 (configuration not stated) -11.1%
Cc1ccc(-n2c(-c3cccc(C)c3)nc3c(cnn3-c3ccccc3)c2=O)cc1 -22.8%
CCCCC(CC)CNC(=O)CC(C)OC(=O)CCC(=O)O (configuration not stated) -0.962%
CCCN(CCC)CCCNC(=O)c1sc2nc3n(c(=O)c2c1C)CCC3 -2.66%
Oc1cccc(-c2nc(-c3cccs3)c(-c3cccs3)[nH]2)c1 -10.8%

activation, active:
CC(CC(=O)NCc1ccc(Cl)cc1Cl)CC1=NS(=O)(=O)c2ccccc2N1 (configuration not stated) 66.4%
Cc1cccc(N(CC(=O)NCCSc2ccc(Cl)cc2)S(C)(=O)=O)c1C 103%
